The campaign covered roughly 7,900 compounds. About 400 (5.1%) showed an effect of 50% or more. Some of the results follow.
Target: Parkinson's disease protein 7 (PARK7/DJ1) (human, UniProt Q99497)
Experiment: primary screen, percent inhibition; read as competition with a fluorescent probe by fluorescence polarization; higher = more effect of the substance
Details: 100 µM
In short: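 Fluorescence-polarization probe displacement (JYQ-107, 20 nM final, 2 h) after 2 h preincubation of PARK7 (0.2 μM final) with each fragment at 100 μM final. Read-out ex/em 480/520 nm; remaining activity derived from FP signal loss relative to reference controls.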

Chain of Parkinson's disease protein 7 (PARK7/DJ1) (Q99497 whole entry, looked up): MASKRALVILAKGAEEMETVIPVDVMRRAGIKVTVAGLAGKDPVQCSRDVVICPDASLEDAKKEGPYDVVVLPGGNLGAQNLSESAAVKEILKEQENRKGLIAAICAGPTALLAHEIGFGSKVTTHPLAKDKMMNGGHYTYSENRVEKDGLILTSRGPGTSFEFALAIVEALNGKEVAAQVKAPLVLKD

SMILES | Inhibition %
C=CC(=O)NCCc1nc2c(s1)CCCC2 | 10.8%
C=CC(=O)N1CCCC(c2nnc3n2CCC3)C1 (centres unmarked) | 5.59%
Cc1ccc2[nH]c3c(c2c1)CN(C(=O)n1ccnc1)CC3 | 67.1%
O=C1OCCC1N1CCN(C(=O)CC2CCCCC2)CC1 (centres unmarked) | 13.6%
CN(C)CCOc1cccc(B2OC(C)(C)C(C)(C)O2)c1 | 5.32%
C=CCNC(=O)C(C#N)=Cc1ccccc1Cl | 11.9%
CC(=O)Nc1ccc(C=C(C#N)c2nc(C)cs2)cc1 | 5.75%
COC(=O)c1cc(N)cc(B2OC(C)(C)C(C)(C)O2)c1C | 10.6%
CC(=O)Nc1ccc(OCC2CO2)cc1 (centres unmarked) | 9.41%
OB(O)c1cc(F)cc2ccoc12 | 2.99%
CC(C)NC(=O)C(C#N)=Cc1ccccc1OC(C)C | 3.42%
C=CC(=O)N1CCN(C2CC2)c2ccccc21 | 15.7%
C=CC(=O)NCc1cc(OC)nc2ccccc12 | 1.86%
N#Cc1ncn(Cc2cccc(Cl)c2)n1 | 5.75%
ClCC1CN(Cc2ccccc2)CCO1 (centres unmarked) | 6.82%
Cc1nc(C=CC(=O)N2CC(C(N)=O)CCC2C)cs1 (centres unmarked) | -0.565%
N#CC(=Cc1ccc(O)cc1)C(=O)O | 5.87%
Cc1ccc(S(=O)(=O)n2cccn2)cc1 | 6.92%
C=CC(=O)NCc1cccc(C(=O)O)c1 | 10.6%
COC(=O)c1ccc(C)c(B2OC(C)(C)C(C)(C)O2)c1 | 5.09%
C=CC(=O)NC1CC(C)(F)C1 (centres unmarked) | 0.437%
COc1cc(NC(=O)CCl)c(Cl)cc1C(=O)O | 13.3%
C=CC(=O)N1CCSC(C)C1C (centres unmarked) | 7.23%
N#CC(=Cc1ccc(-c2nc3ccccc3s2)o1)C(=O)O | 3.06%
OB(O)c1cc(F)cc(COC2CCCCC2)c1 | -3.11%
SCCc1nn[nH]n1 | 14.9%
C=CCNC(=O)C(C#N)=Cc1ccc(C)s1 | -1.57%

SMILES | Inhibition %
C=CC(=O)N1CC(F)(c2ccccc2F)C1 | 6.22%
O=C(CCl)Nc1ccc(Cl)c([N+](=O)[O-])c1 | 29.8%
CC(NC(=O)c1c[nH]c(C#N)c1)C(C)(F)F (centres unmarked) | 6.11%
C=CC(=O)N1CCC(Cc2ccccn2)CC1 | 7.51%
C=CC(=O)NC1CC2OCCCC12 (centres unmarked) | 9.61%
O=C(NC1CCOC2(CCCCC2)C1)c1cccnc1S (centres unmarked) | 6.61%
C=CC(=O)N1CCCC(Cn2cncn2)C1 (centres unmarked) | 1.6%
C=CC(=O)Nc1ccc(OC)cc1 | 5.38%
C=CC(=O)NC1CCOC(C(C)C)C1 (centres unmarked) | 9.78%
C=CC(=O)Nc1nc2c(s1)COCC2 | 6.4%
COC(=O)C1OC12CCCOC2 (centres unmarked) | 3.97%
CCc1[nH]c(S)nc(=O)c1C | 8.89%
CC1CCCN(CCCl)C1.Cl (centres unmarked) | 4.27%
C=CC(=O)NC(c1cccnc1)C1CC1 (centres unmarked) | 7.66%
CN(Cc1nc2ccccc2[nH]1)S(=O)(=O)C1=CCCCC1 | 8.82%
C=CC(=O)N1CCC(c2cc(C(=O)O)n(C)n2)CC1 | 10.5%
CC1(C)SC(=O)N(Cc2cccnc2)C1=O | 4.44%
Cc1nn(C)c(Cl)c1C=CC(=O)N1CCC(C(=O)O)C1.Cl (centres unmarked) | 7.34%
O=C(c1ccc(Cl)cc1F)N1CCCCC1C1OCCO1 (centres unmarked) | 1.46%
C=CC(=O)NC(C)c1ccc2c(c1)OC(CC)C(=O)N2 (centres unmarked) | 2.83%
CN1CCC(Nc2ccc(C#N)nc2)C1c1ccccc1 (centres unmarked) | -1.06%
Cc1cc(NS(=O)(=O)C=Cc2ccccc2Cl)n(C)n1 | 8.51%
Cc1ncc(C=CC(=O)N2CCC(C(=O)O)C2)s1.Cl.Cl (centres unmarked) | 7.82%
O=c1c2ccccc2nc(S)n1CCS | 7.43%
N#Cc1ncn(CC2CCC(F)(F)CC2)n1 | 17.4%
CC1Oc2ccccc2N(CCCl)C1=O (centres unmarked) | 15.4%
Cc1cc(NC(=O)CCl)n(-c2ccc(F)cc2)n1 | 16.3%

SMILES | Inhibition %
O=c1onc(-c2ccccc2)n1CC1CCOC1 (centres unmarked) | 2.8%
COc1ccc2nc(NC(=O)CCl)sc2c1 | 14.5%
C=CC(=O)NC1CCOc2c(F)cccc21 (centres unmarked) | 4.11%
CCCn1c(C)cc(C=C(C#N)C(=O)O)c1C | 10.4%
C=CC(=O)NC1CCCCCCC1 | 6.94%
N#Cc1cccc(Oc2ccc(C(=O)NC3CC3)cc2)n1 | 3.09%
Cc1nc(C(C)C)oc1Cn1ccnc1C#N | 8.62%
CNC(=O)Oc1cccc2ccccc12 | 15.7%
C=CC(=O)N1CCC2(CC1)OCCCO2 | 5.02%
O=C(CCl)Nc1cccc(Oc2ccccc2)c1 | 55.6%
Cn1nccc1C=CC(=O)N1CCOCC1 | 24.5%
C=CC(=O)NCC1CCOC1 (centres unmarked) | 14.2%
C=CC(=O)N1C[C@@H]2C[C@H](C1)c1cccc(=O)n1C2 | 9.87%
C=CC(=O)N1CCCC(c2ncno2)C1 (centres unmarked) | 10.3%
N#Cc1ccc(NC2CC(F)(F)C2)cn1 | 4.45%
OB(O)C1CCN(Cc2ccccc2)C1 (centres unmarked) | 10.1%
Cc1cccc(C)c1OCCNC(=O)CCl | 8.34%
C=CC(=O)NCC1CCCN(c2nccn3cnnc23)C1 (centres unmarked) | 16.5%
CC1(C)OB(c2ccc(C(F)(F)F)cc2C#N)OC1(C)C | 8.26%
C=CC(=O)N1CCCC1C1COCCC1(C)O (centres unmarked) | 3.6%
CC(CNc1nccnc1C#N)c1ccc(F)c(F)c1 (centres unmarked) | 22.4%
C=CC(=O)NC1CCN(c2cccc(C(F)(F)F)c2)CC1 | 2.44%
C=CS(=O)(=O)Nc1ccccc1 | 6.78%
CC(NC(=O)c1cccnc1S)c1nnc2n1CCCC2 (centres unmarked) | 14.4%
C=CC(=O)NC1CCC(c2nc(C)no2)CC1 (centres unmarked) | 4.65%
Cn1cccc1S(=O)(=O)F | 14.2%
